Several values for one entry are separate records, joined by “and”; a condition that tells them apart may be missing. Identical values can stand only once. The whole screen tested about 360,000 compounds, of which about 2,600 (0.72%) were called active. Inconclusive results, whose numbers are uncertain, are shown with a selection of clear calls. Calls come from the whole dose curve; as a rule, active = well fitted inhibition curve with a large enough effect; inconclusive = small, poorly fitted or top-dose-only effect; inactive = no such curve, though single readings can be large or run the other way. Potencies of inconclusive entries are doubtful fits and often do not repeat. Some compounds were tested as several samples or in several runs, with calls that do not always agree.
Test: Primary qHTS for Inhibitors of ATXN expression; note: nearly all actives have a fitted effect of over 55% in size
Settings: HEK-293 ATXN2-luciferase reporter, luminescence, 24 h; activity change, negative = inhibition: at 57 µM (top of the series)
How it was run: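 ATXN2-luciferase reporter cells (luciferase flanked by upstream and downstream ATXN2 gene portions) were treated 24 h at 37 °C with compounds at up to 57 uM. SteadyGlo luminescence gave expression; GF-AFC fluorescence gave viability.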
With `O=C(Cn1cc(C(F)(F)F)ccc1=O)N/N=C/c1ccccc1O` the “activity change, negative = inhibition” value was inactive: 0%.
In the case of `COc1ccc(-n2sc3ccc(F)cc3c2=O)cc1`, the Potency is reported as inconclusive: 39.8 µM [inhibitor, single point].
In the case of `CCN1C(=O)S/C(=C/c2ccc(Sc3nc4ccccc4[nH]3)o2)C1=O`, the Potency is reported as inconclusive: 28.2 µM [inhibitor, partial curve, poor fit].
In the case of `O=C(NC1CCN(C(=O)N2c3ccccc3Sc3ccccc32)CC1)c1ccccc1F`, the Potency is reported as inconclusive: 20 µM [inhibitor, partial curve].
In the case of `CSc1ccc(CCNc2ncnc3onc(C)c23)cc1`, the Potency is reported as inconclusive: 0.355 µM [inhibitor, partial curve, poor fit].
For `C[C@H](NC(=O)c1ccc(C(C)(C)C)cc1)C(=O)N1CCN(C/C=C/c2ccccc2)CC1`, the Potency was inconclusive: 20 µM [inhibitor, single point].
With `CN(C)CCCN(C(=O)CCSc1ccccc1)c1nc2cc3c(cc2s1)OCO3` the Potency was inconclusive: 25.1 µM [inhibitor, single point].
In the case of `CN(C(=O)c1cc(-c2ccccc2O)on1)c1ccccc1`, the “activity change, negative = inhibition” value is reported as inactive: 9.86%.
In the case of `CCCCOc1c(Cl)cc(C(=O)N(Cc2ccc(C)o2)C2CCS(=O)(=O)C2)cc1Cl` (centres undefined), the “activity change, negative = inhibition” value is reported as inactive: -17.5%.
For `COc1cc2c(cc1OC)CN(Cc1cc(=O)n3cc(C)ccc3n1)CC2`, the Potency was inconclusive: 35.5 µM [inhibitor, single point].
In the case of `COc1cc(NC(=O)c2ccc(Cl)cc2)c(OC)cc1NC(=O)CN1CCOCC1`, the “activity change, negative = inhibition” value is reported as inactive: -3.89%.
In the case of `O=C(Nc1ccc(F)cc1)N(Cc1cccs1)Cc1cc2cc3c(cc2[nH]c1=O)OCO3`, the Potency is reported as inconclusive: 20 µM [inhibitor, partial curve, poor fit].
With `Cc1cccc2nc(-c3cccnc3)c(Nc3ccc(C(C)C)cc3)n12` the Potency was active: 15.8 µM.
In the case of `O=C(CCc1ccccc1)NC(NC(=S)Nc1ccc(Cl)cc1)C(Cl)(Cl)Cl` (centres undefined), the Potency is reported as active: 31.6 µM.
With `CC(C)CC1C(=O)N(Cc2cn(CCC3OCCCO3)nn2)CCS(=O)(=O)N1Cc1ccc(-c2ccc(Cl)nc2)cc1` (centres undefined) the Potency was inconclusive: 39.8 µM [inhibitor, single point].
In the case of `CCCCc1nc2sc3c(SCC(=O)NCc4ccco4)ncnc3c2c2c1CCC2`, the Potency is reported as inconclusive: 22.4 µM [inhibitor, partial curve, poor fit].
With `CCCNC(=O)c1ccc2c(=O)c(O)c(-c3ccc(F)cc3)[nH]c2c1` the Potency was inconclusive: 39.8 µM [inhibitor, single point].
With `CNS(=O)(=O)/C=C/c1ccccc1` the “activity change, negative = inhibition” value was inactive: -9.47%.
For `Cc1ccc(S(=O)(=O)Nc2ccc(S(=O)(=O)Nc3nccs3)cc2)cc1C`, the “activity change, negative = inhibition” value was inactive: -4.15%.
For `O=C(c1cc(-c2ccc(Cl)cc2Cl)on1)N1CCCCCC1`, the “activity change, negative = inhibition” value was inactive: -19.1%.
With `C/C(=N\NC(=O)c1cc2ccccc2cc1O)c1cc2ccccc2o1` the Potency was inconclusive: 15.8 µM [inhibitor, partial curve].
In the case of `CN1CCN(CCCNC(=O)Cn2c(-c3cccs3)cc3ccccc32)CC1`, the “activity change, negative = inhibition” value is reported as inactive: -7.74%.
For `Cc1ccc(S(=O)(=O)CCSc2nccn2C)cc1`, the Potency was inconclusive: 3.98 µM [inhibitor, partial curve, poor fit].
With `CCOC(=O)c1noc2ncnc(Nc3ccc(C)c(F)c3)c12` the “activity change, negative = inhibition” value was inactive: 2.13%.
With `Cc1ccc(NC(=O)NCc2nc3ccccc3n2C)cc1` the Potency was inconclusive: 25.1 µM [inhibitor, partial curve, poor fit].
With `COc1cccc(NC(=S)N(CCCN2CCCC2)Cc2cccn2Cc2ccc(Cl)cc2)c1` the Potency was inconclusive: 28.2 µM [inhibitor, partial curve].
With `CCNC(=O)N1CCN(CCCC(c2ccc(F)cc2)c2ccc(F)cc2)CC1` the Potency was inconclusive: 28.2 µM [inhibitor, partial curve, poor fit].
With `CCOC(=O)c1sc(NC(=O)c2cccc(S(=O)(=O)N3CCc4ccccc43)c2)c(C#N)c1C` the Potency was inconclusive: 10 µM [inhibitor, partial curve].
In the case of `CCOC(=O)C1=C(COC(=O)/C=C/c2cccc(OC)c2OC)NC(=O)NC1C` (centres undefined), the “activity change, negative = inhibition” value is reported as inactive: 22.4%.
In the case of `O=C(CN1C(=O)S/C(=C\c2ccccn2)C1=O)Nc1ccccc1`, the Potency is reported as inconclusive: 28.2 µM [inhibitor, partial curve, poor fit].
With `CCc1cc(=O)oc2c3c(cc(OCC(=O)NCc4ccncc4)c12)OC(C)(C)CC3` the “activity change, negative = inhibition” value was inactive: -7.6%.
In the case of `C=CC(=O)Nc1cc(NC(=O)c2ccc(C)c(NC(=O)c3ccno3)c2)cc(C(F)(F)F)c1`, the Potency is reported as inconclusive: 27.3 µM [inhibitor, single point].
With `O=C(N[C@@H]1C/C=C\C[C@@H](CC(=O)N(CCO)Cc2ccccc2)C(=O)NC[C@H](c2ccccc2)OC1=O)OCC1c2ccccc2-c2ccccc21` the Potency was inconclusive: 31.6 µM [inhibitor, partial curve, poor fit].
With `CC(C)(C)c1ccc(-c2noc(CCC(=O)NCC3CCCO3)n2)cc1` (centres undefined) the Potency was inconclusive: 0.708 µM [inhibitor, full curve].
With `Cc1cccc(N(CC(=O)NCc2ccccc2)S(C)(=O)=O)c1C` the “activity change, negative = inhibition” value was inactive: 2.63%.
In the case of `COC(=O)c1ccc(NC(=S)Nc2ccccn2)cc1`, the “activity change, negative = inhibition” value is reported as inactive: 18.3%.
With `COCOCCn1cc(CN2CCS(=O)(=O)N(Cc3ccc(-c4ccc(Cl)c(Cl)c4)cc3)C(C)C2=O)nn1` (centres undefined) the Potency was active: 28.2 µM.
With `COc1cc(NC(=O)c2cc3cccc(OC)c3o2)cc(C(=O)Nc2cccc(C(F)(F)F)c2)c1` the Potency was inconclusive: 12.6 µM [inhibitor, partial curve, poor fit].
In the case of `CC(=O)n1cc(C(C[N+](=O)[O-])SCCN)c2ccccc21` (centres undefined), the Potency is reported as inconclusive: 31.6 µM [inhibitor, partial curve, poor fit].
In the case of `Cc1ccc(-c2nc(N)sc2-c2ccc(C)cc2)cc1`, the Potency is reported as inconclusive: 33.6 µM [inhibitor, single point].
With `COc1ccc(CN(C)C(=O)CCN(c2ccccc2)S(=O)(=O)c2ccc(C)cc2)c(OC)c1` the “activity change, negative = inhibition” value was inactive: -8.01%.
With `COc1cc2cc(C(c3nnnn3C3CCCCC3)N(C)C3CCCCC3)c(=O)[nH]c2cc1OC` (centres undefined) the “activity change, negative = inhibition” value was inactive: -26.3%.
In the case of `COc1ccc(F)cc1C(=O)C1CCCN(Cc2cccn2-c2ccccn2)C1` (centres undefined), the Potency is reported as inconclusive: 2.82 µM [inhibitor, partial curve, poor fit].
With `COc1ccc(Nc2nc(N)c(C(=O)c3ccc(OC)cc3)s2)cc1` the activity change, negative = inhibition was inconclusive: -67.7% [inhibitor].
With `OCC1(CCOc2ccccc2)CCN(CC2=Cc3cc(Cl)ccc3OC2)CC1` the Potency was inconclusive: 15.8 µM [inhibitor, partial curve, poor fit].
In the case of `COc1cc(C#Cc2c(-c3cncn3C)n(C)c3ccc(-c4cnc(OC)nc4)cc23)cc(OC)c1`, the Potency is reported as active: 20 µM.
For `C=CCC[C@H](Cc1ccc(F)cc1)C(=O)OC[C@@H](Cc1c[nH]c2ccccc12)NC(=O)[C@@H](CC=C)CC(=O)NCCO`, the Potency was inconclusive: 31.6 µM [inhibitor, single point].
In the case of `CCCCCCCCN1C(=O)[C@H](CC(=O)NCCC(C)C)C[C@@]2(C(=O)OC)CCCCC=C12`, the Potency is reported as inconclusive: 39.8 µM [inhibitor, single point].
With `FC(F)(F)c1nnc2c(Sc3ccc(Cl)cc3)nc3ccccc3n12` the Potency was inconclusive: 31.6 µM [inhibitor, partial curve, poor fit].
For `O[C@@H]1CN(CC2CCCCC2)[C@@H](c2ccccc2)C[C@H]1n1cc(-c2ccc(F)cc2)nn1`, the Potency was inconclusive: 39.8 µM [inhibitor, single point].
With `O=C(Nc1cnn(Cc2ccc(F)cc2)c1)c1cc(-c2ccco2)on1` the Potency was inconclusive: 3.16 µM [inhibitor, partial curve, poor fit].
In the case of `COC1=C(OC)C(=O)C(CCCCCCCCCCO)=C(C)C1=O`, the Potency is reported as inconclusive: 28.2 µM [inhibitor, partial curve] and inconclusive: 30.6 µM [inhibitor, single point].
In the case of `CCN(CC)CCC(=O)N1c2ccccc2CCc2ccc(NC(=O)OC)cc21`, the “activity change, negative = inhibition” value is reported as inactive: -21.4%.
For `Cc1cc(Nc2cccc([N+](=O)[O-])c2)c2cccc(C)c2n1`, the Potency was inconclusive: 20 µM [inhibitor, single point].
For `CCN(CC)S(=O)(=O)c1nnc(NC(=O)COc2ccc(C)cc2)s1`, the “activity change, negative = inhibition” value was inactive: 10%.
In the case of `O=C(NNC(=O)c1cc(Br)ccc1O)c1csc(N2CCOCC2)n1`, the Potency is reported as inconclusive: 31.6 µM [inhibitor, single point].
With `CCOC(=O)[C@H](CCc1ccccc1)N[C@H]1CCc2ccccc2N(CC(=O)O)C1=O` the Potency was “inactive and active: 35.5 µM and active: 24.3 µM”.
With `C=CC[C@@H](CC(=O)N(CCO)Cc1ccccc1)C(=O)N[C@@H](COC(=O)[C@@H](CC=C)Cc1ccc(F)cc1)Cc1ccccc1` the Potency was inconclusive: 39.8 µM [inhibitor, single point].
With `CCOc1ccccc1NC(=O)CSc1nc2ccccc2nc1Cc1ccc(C)cc1` the “activity change, negative = inhibition” value was inactive: 16.2%.
In the case of `C=CS(=O)c1sc(Cl)c(N2CCOCC2)c1[N+](=O)[O-]` (centres undefined), the Potency is reported as inconclusive: 5.32 µM [inhibitor, partial curve, poor fit].
With `Cc1ccc(-c2cc(C(F)F)n3ncc(C(=O)Nc4c(C)nn(Cc5ccccc5Cl)c4C)c3n2)cc1` the Potency was inconclusive: 39.8 µM [inhibitor, single point].
For `CCNC(=O)c1c(NC(=O)c2cc(-c3cc(C)cc(C)c3O)n[nH]2)sc2c1CCCC2`, the Potency was inconclusive: 4.47 µM [inhibitor, full curve, poor fit].
With `Cn1nc(OCCOc2ccccc2)ccc1=O` the “activity change, negative = inhibition” value was inactive: 17.4%.
For `Cc1ccc(/C(=N\O)c2oc3c(C)c4oc(=O)cc(C)c4cc3c2C)cc1`, the Potency was inconclusive: 31.6 µM [inhibitor, single point].
% is set by controls: 0 for no effect and ±100 for the full control effect; potency is the fitted concentration of half-maximal effect; tags give direction and shape of the fitted curve.
